{"source": "PubChem BioAssay AID1645887", "about": "(National Center for Advancing Translational Sciences (NCATS), 2021)", "note": "Values joined by “and” are separate entries in the source; they are usually repeats but may differ in a detail not shown here. Equal values may be shown once. Screen size: about 16,000 compounds; about 40 (0.2%) were called active. Not shown: some 1% with an inconclusive outcome. Calls come from the whole dose curve; as a rule, active = well fitted activation curve with a large enough effect; inconclusive = small, poorly fitted or top-dose-only effect, or another doubt; inactive = no such curve, though single readings can be large or run the other way. The list shows a part of the results. % is set by controls: 0 for no effect and ±100 for the full control effect; potency is the fitted concentration of half-maximal effect.", "data": [{"molecular_target": "Rap guanine nucleotide exchange factor 4 (Homo sapiens) (UniProt Q8WZA2)", "sequence (Q8WZA2 whole entry, looked up)": "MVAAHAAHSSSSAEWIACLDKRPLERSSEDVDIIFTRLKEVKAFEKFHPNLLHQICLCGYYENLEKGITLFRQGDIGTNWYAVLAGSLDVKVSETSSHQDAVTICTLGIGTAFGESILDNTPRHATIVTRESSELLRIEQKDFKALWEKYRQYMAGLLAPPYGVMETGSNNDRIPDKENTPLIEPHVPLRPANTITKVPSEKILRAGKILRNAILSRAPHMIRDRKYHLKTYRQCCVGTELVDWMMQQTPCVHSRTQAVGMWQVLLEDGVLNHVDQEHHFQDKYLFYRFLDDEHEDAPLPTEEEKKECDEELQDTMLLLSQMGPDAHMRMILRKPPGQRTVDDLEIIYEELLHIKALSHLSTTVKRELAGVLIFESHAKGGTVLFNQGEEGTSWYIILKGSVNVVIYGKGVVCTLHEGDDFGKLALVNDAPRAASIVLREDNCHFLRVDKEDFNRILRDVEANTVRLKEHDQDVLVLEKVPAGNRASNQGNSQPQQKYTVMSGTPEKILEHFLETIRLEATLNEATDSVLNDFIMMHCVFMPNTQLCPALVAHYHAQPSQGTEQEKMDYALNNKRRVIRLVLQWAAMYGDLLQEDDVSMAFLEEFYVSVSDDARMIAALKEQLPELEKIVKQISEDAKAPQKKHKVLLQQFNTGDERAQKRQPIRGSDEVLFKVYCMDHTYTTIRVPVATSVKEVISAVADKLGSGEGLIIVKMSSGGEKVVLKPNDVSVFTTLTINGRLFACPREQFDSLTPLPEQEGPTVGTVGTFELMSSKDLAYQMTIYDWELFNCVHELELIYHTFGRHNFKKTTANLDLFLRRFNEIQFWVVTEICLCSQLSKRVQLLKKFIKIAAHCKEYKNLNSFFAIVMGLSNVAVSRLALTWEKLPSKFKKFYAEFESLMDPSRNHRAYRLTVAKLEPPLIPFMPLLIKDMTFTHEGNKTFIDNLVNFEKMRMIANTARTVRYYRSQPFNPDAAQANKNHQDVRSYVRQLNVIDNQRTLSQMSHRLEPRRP", "experiment": "Validation qHTS for agonist of cAMP-regulated guanine nucleotide exchange factor 4 (EPAC2);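 for activation: exchange makes BODIPY-GDP fluorescence drop when released from Rap1B; series mostly up to about 150 µM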", "conditions": "EPAC2 Rap1B BODIPY-GDP exchange, fluorescence; activation: stronger effect = higher value", "in_short": "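Fluorescent exchange assay: 100 nM EPAC2 with 250 nM RAP1B-BODIPY-GDP and 50 uM GDP; compound added, 5 min at room temperature, then read (ex 480/em 540 nm) every 5 min for 30 min. Normalized to 6.5 mM cAMP agonist control.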", "values": [{"smiles": "COC(=O)N1CCC2(CCN(C(=O)Nc3ccccc3)CC2)CC1", "activation": "inactive: -28.2%"}, {"smiles": "COc1cccc(C(=O)NCC2Cc3cccc(-c4cccnc4)c3O2)c1", "note": "(configuration not stated)", "activation": "inactive: 1.53%"}, {"smiles": "O=C1CCN(Cc2ccc([N+](=O)[O-])cc2)CCN1[C@H](CO)Cc1ccccc1", "activation": "inactive: -10.8%"}, {"smiles": "Cn1cccc1C(=O)N1CCC2(CCN(C(=O)Nc3cccc(F)c3)CC2)CC1", "activation": "inactive: -14.7%"}, {"smiles": "O=C(N[C@H](CO)[C@H](O)c1ccc([N+](=O)[O-])cc1)C(Cl)Cl", "activation": "inactive: -19.1% and inactive: -11.7% and inactive: 0.352%"}, {"smiles": "COc1cccc(Cc2nc3cccnc3n2C2CCN(C(=O)c3n[nH]c4c3CCCC4)CC2)c1", "activation": "inactive: -12.4%"}, {"smiles": "O=C(O)CCNC(=O)c1ccccc1", "activation": "inactive: -12%"}, {"smiles": "COC1/C=C/OC2(C)Oc3c(C)c(O)c4c(O)c(c(/C=N/N5CCN(C)CC5)c(O)c4c3C2=O)NC(=O)/C(C)=C/C=C/C(C)C(O)C(C)C(O)C(C)C(OC(C)=O)C1C", "note": "(configuration not stated)", "activation": "inactive: -13.6%"}, {"smiles": "COCc1ccc(CN2Cc3cc(Cl)ccc3OC(C)C2)o1", "note": "(configuration not stated)", "activation": "inactive: 6.88%"}, {"smiles": "C/C(=C\\c1ccco1)CN1CCOc2ccc(C(C)(O)COc3ccccc3)cc2C1", "note": "(configuration not stated)", "activation": "inactive: 5.68%"}, {"smiles": "CCC[C@@H]1C[C@@H](C(=O)N[C@@H]([C@H]2O[C@H](SC)[C@H](O)[C@@H](O)[C@H]2O)[C@H](C)Cl)N(C)C1", "activation": "inactive: -11%"}, {"smiles": "NC(C(=O)O)[C@H](O)C(=O)O", "note": "(some centres not stated)", "activation": "inactive: 11%"}, {"smiles": "O=C(O)C1OC(O)C(O)C(O)C1O", "note": "(configuration not stated)", "activation": "inactive: -9.62%"}, {"smiles": "O=C(c1ccncc1)N1CCC2(CC1)CN(c1ncccn1)C2", "activation": "inactive: -0.642%"}, {"smiles": "CCC(=O)OCC(=O)C1(OC(=O)CC)C(C)CC2C3CCC4=CC(=O)C=CC4(C)C3(Cl)C(O)CC21C", "note": "(configuration not stated)", "activation": "inactive: 12.5%"}, {"smiles": "COc1cccc(CNc2ncnc3sc(C(=O)N4CCOCC4)c(C)c23)c1OC", "activation": "inactive: -15%"}, {"smiles": "COC(=O)C1=C(C)NC(C)=C(C(=O)O[C@@H]2CCCN(Cc3ccccc3)C2)[C@@H]1c1cccc([N+](=O)[O-])c1", "activation": "inactive: 6.04%"}, {"smiles": "c1ccc2sc(-c3cc4c(c(OC5CCOC5)c3)OCCN(Cc3cccn3-c3nccs3)C4)nc2c1", "note": "(configuration not stated)", "activation": "inactive: 3.79%"}, {"smiles": "C=C(C)C1(O)OC(=O)C=C1OC", "note": "(configuration not stated)", "activation": "inactive: -13.6%"}, {"smiles": "COCc1ccc(C(=O)N2CCOc3ccc(CN4CCN(c5ccc(F)cc5)CC4)cc3C2)o1", "activation": "inactive: -11.5%"}, {"smiles": "O=c1[nH]c(-c2ccccc2O)nc2ccccc12", "activation": "inactive: 2.93%"}, {"smiles": "CC12CCC3c4ccc(O)cc4CCC3C1CCC2=O", "note": "(configuration not stated)", "activation": "inactive: -1.94%"}, {"smiles": "CC(=O)N[C@@H](Cc1c[nH]c2ccccc12)C(=O)OCc1cc(C(F)(F)F)cc(C(F)(F)F)c1", "activation": "inactive: -49.3% and inactive: -51.7%"}, {"smiles": "Cc1ccc2c(c1)c1c3n2CCNC3CCC1", "note": "(configuration not stated)", "activation": "inactive: -15.4%"}, {"smiles": "CN1CCC(=O)N([C@H](CO)Cc2ccccc2)CC1", "activation": "inactive: -7.95%"}, {"smiles": "Cn1nnnc1SCC1=C(C(=O)O)N2C(=O)C(NC(=O)C(O)c3ccccc3)C2SC1", "note": "(configuration not stated)", "activation": "inactive: -13.1%"}, {"smiles": "CCN(CC)CCOC(=O)c1cc(Cl)c(N)cc1OC", "activation": "inactive: 5.89% and inactive: -13.8%"}, {"smiles": "O=C(c1cc(C(F)(F)F)cc(C(F)(F)F)c1)N1CCC[C@@]2(CCN(c3ccccn3)C2)C1", "activation": "inactive: -42.2%"}, {"smiles": "NC/C=C/C(=O)O", "activation": "inactive: -6.43% [middle of 4 runs]"}, {"smiles": "CN(Cc1ccco1)c1cc(-c2cccc(NS(C)(=O)=O)c2)ncn1", "activation": "inactive: -4.17%"}, {"smiles": "CN(C)C/C=C(/c1ccc(Br)cc1)c1cccnc1", "activation": "inactive: -15.2% and inactive: -49%"}, {"smiles": "CCOc1ccc2ccccc2c1C(=O)N[C@@H]1C(=O)N2[C@@H]1SC(C)(C)[C@@H]2C(=O)O", "activation": "inactive: -10.7%"}, {"smiles": "C/C=C/C=C/C(=O)O", "activation": "inactive: -2.4%"}, {"smiles": "O=C(c1cccc(F)c1)N1CCC2(CC1)CN(c1ccncc1)C2", "activation": "inactive: -3.15%"}, {"smiles": "COc1cccc(Cn2c(=O)c(C)nc3cnc(N(C)C)nc32)c1", "activation": "inactive: -4.41%"}, {"smiles": "CCN(CC)CCNC(=O)c1cc(Cl)c(N)cc1OC", "activation": "inactive: 0.679% and inactive: -14.3% and inactive: -34.9%"}, {"smiles": "COCC(=O)N1CCC2(CC1)CN(C(=O)Nc1cccc(C#N)c1)C2", "activation": "inactive: 2.59%"}, {"smiles": "COc1ccc(CNc2nc(-c3cccc(NS(C)(=O)=O)c3)nc3ccccc23)c(OC)c1", "activation": "inactive: 16.6%"}, {"smiles": "NCCCNCCCCNCCCN", "activation": "inactive: 2.45% and inactive: -13.7%"}, {"smiles": "CCCN(CCC)c1ccc(/C=C/c2ccnc3ccccc23)cc1", "Potency": "active: 100 µM"}, {"smiles": "COc1ccc(C(=O)N2CCC[C@@]3(CCN(C(=O)Nc4cccc(F)c4)C3)C2)cc1", "activation": "inactive: -1.38%"}, {"smiles": "CC1=NN(c2ccccc2)C(=O)C1", "activation": "inactive: 7.58% and inactive: 5.94% and inactive: 12.4%"}, {"smiles": "Cc1c(C(=O)NCc2ccco2)cnn1-c1ncc2c(n1)-c1ccccc1CC2", "activation": "inactive: -0.162%"}, {"smiles": "NCCCNCCCCN(CCCN)/[N+]([O-])=N/O", "activation": "inactive: -14.6%"}, {"smiles": "CCC1CN(CCNC(=O)c2cccc(N3CCCC3=O)c2)Cc2cc(OC)ccc2O1", "note": "(configuration not stated)", "activation": "inactive: -8.65%"}, {"smiles": "N#C/C(=C\\c1c[nH]c2ccccc12)C(=O)c1ccc(O)c(O)c1", "activation": "inactive: -46.8%"}, {"smiles": "CC(C)NC(=O)N1CCCC2(CCN(S(=O)(=O)c3ccccc3)CC2)C1", "activation": "inactive: -15.4%"}, {"smiles": "COc1ccccc1Oc1c(NS(=O)(=O)c2ccc(C(C)(C)C)cc2)nc(-c2ncccn2)nc1OCCO", "activation": "inactive: -16.8%"}, {"smiles": "COCC(=O)N1CCC2(CC1)CCN(c1ccccc1)CC2", "activation": "inactive: -0.593%"}, {"smiles": "CNC(=O)Oc1ccc2c(c1)[C@@]1(C)CCN(C)[C@@H]1N2C", "activation": "inactive: -2.49%"}, {"smiles": "NC(N)=NCCC[C@H](N)C(=O)O", "activation": "inactive: -3.96% and inactive: -9.02% and inactive: -20.1%"}, {"smiles": "CC(C)Cc1ccc(CC(=O)O)cc1", "activation": "inactive: -16.2%"}, {"smiles": "Cc1cccc(CNC(=O)c2cnn(-c3nccc(-c4cccs4)n3)c2C2CC2)n1", "activation": "inactive: -7.31%"}, {"smiles": "CC1(C)CC2/C(CO)=C/C=C/[C@](C)(O)CC[C@]21O", "note": "(some centres not stated)", "activation": "inactive: -6.49%"}, {"smiles": "COc1cc(C(=S)N2CCOCC2)cc(OC)c1OC", "activation": "inactive: -3.93%"}, {"smiles": "CC(C)(C)Cn1nc(-c2ccc(Cl)cc2)c2c(N)ncnc21", "activation": "inactive: -19.7%"}, {"smiles": "O=C(Nc1cccc(N2CCC(NCc3cnn(-c4ccccc4)n3)CC2)c1)c1cccnc1", "activation": "inactive: -3.35%"}, {"smiles": "N#Cc1cccc(NC(=O)N2CCC3(CC2)CCN(C(=O)c2ccco2)CC3)c1", "activation": "inactive: -8.7%"}, {"smiles": "COCCNc1nc(-c2ccccc2Cl)nc2ccccc12", "activation": "inactive: 0.503%"}, {"smiles": "Cc1cnc(-n2ncc(C(=O)NCC3COCCO3)c2C2CC2)nc1-c1cccs1", "note": "(configuration not stated)", "activation": "inactive: -6.8%"}, {"smiles": "CCCCC/C=C\\C/C=C\\CCCCCCCC(N)=O", "activation": "inactive: -14.4%"}, {"smiles": "OCc1cccnc1", "activation": "inactive: -9.85%"}, {"smiles": "c1cncc(CNc2nc(-c3cccnc3)nc3ccccc23)c1", "activation": "inactive: -10.3%"}, {"smiles": "COCCNc1cc(-c2ccccc2CN(C)C)ncn1", "activation": "inactive: -7.34%"}, {"smiles": "CN1CCN(c2ncc3nc(CCc4ccccc4)c(=O)n(CCc4ccccc4)c3n2)CC1", "activation": "inactive: 0.7%"}, {"smiles": "Cc1cc(C)c2nccc(C)c2c1", "activation": "inactive: -3.69%"}, {"smiles": "N[C@H](C(=O)O)[C@@H](O)c1ccc(O)c(O)c1", "activation": "inactive: -14.5%"}, {"smiles": "O=C(O)Cc1c[nH]c2ccc(O)cc12", "activation": "inactive: -44%"}, {"smiles": "O=C(Oc1ccccc1)N1CCC2(CC1)CCN(c1cccc(-c3ccccc3)c1)CC2", "activation": "inactive: 2.78%"}, {"smiles": "COC(=O)c1ccccc1C(=O)c1ccc(OCCN2CCCCC2)cc1", "activation": "inactive: -9.51%"}, {"smiles": "O=C(Nc1cccc(F)c1)N1CCCC2(CCN(C(=O)c3csnn3)CC2)C1", "activation": "inactive: 0.113%"}, {"smiles": "N[C@H](C(=O)O)c1nn[nH]n1", "activation": "inactive: -8.72%"}, {"smiles": "CN1CC(=O)N/C1=N/C(=O)Nc1cccc(Cl)c1", "activation": "inactive: 4.84% and inactive: -19.3%"}, {"smiles": "CC(=O)N[C@H](Cc1c[nH]c2ccccc12)C(N)=O", "activation": "inactive: -5.85%"}, {"smiles": "CC(C)=CCC/C(C)=C/CC/C(C)=C/CC/C=C(\\C)CC/C=C(\\C)CCC=C(C)C", "activation": "inactive: -2.05% and inactive: -3.92%"}, {"smiles": "CC(C)OC(=O)c1cc2c(OCC(O)CNC(C)(C)C)cccc2[nH]1", "note": "(configuration not stated)", "activation": "inactive: -12.5%"}, {"smiles": "O=S(=O)(c1ccccc1)N1CCC2(CC1)CN(c1ccccn1)C2", "activation": "inactive: 0.871%"}, {"smiles": "Cc1cnc(C)c(-c2cc(F)cc3c2OC(CNC(=O)Cc2ccccc2C)C3)n1", "note": "(configuration not stated)", "activation": "inactive: 2.68%"}, {"smiles": "COC(=O)N1CCC2(CC1)CCN(c1ccncc1)CC2", "activation": "inactive: -7.64%"}, {"smiles": "CN(C)C(=O)c1ccc(-c2ccc3ncnc(NCCN4CCOCC4)c3c2)cc1", "activation": "inactive: -11.3%"}, {"smiles": "C=C1C(=O)C23C(O)C1CCC2[C@]12COC3(O)C(O)C1C(C)(C)CC[C@H]2O", "note": "(some centres not stated)", "activation": "inactive: -16.3%"}, {"smiles": "CC(C)[N+](C)(CCOC(=O)C1c2ccccc2Oc2ccccc21)C(C)C", "activation": "inactive: -9.32% and inactive: -6.08%"}, {"smiles": "O=C(NCc1nnc2n1CCN(Cc1ccc(C(F)(F)F)cc1)CC2)c1ccccn1", "activation": "inactive: -8.43%"}, {"smiles": "N[C@@H](CO)C(=O)O", "activation": "inactive: -1.71% and inactive: -26.1%"}, {"smiles": "CN1CCC[C@@H]1Cc1c[nH]c2ccc(CCS(=O)(=O)c3ccccc3)cc12", "activation": "inactive: -9.46%"}, {"smiles": "CN(C)CCC=C1c2ccccc2COc2ccccc21", "activation": "inactive: -2.24%"}, {"smiles": "Cc1ncc2c(c1CNC(=O)c1ccc3c(c1)OCO3)CCN(C(=O)/C=C/c1ccc(Cl)cc1)C2", "activation": "inactive: -1.75%"}]}]}
